Data as given in PubChem BioAssay AID504332 (National Center for Advancing Translational Sciences (NCATS), 2011).
About 31,000 (8.9%) of roughly 350,000 compounds were called active. The shares of active, inactive and inconclusive entries below differ from those in the screen. Calls follow the shape of the dose curve; as a rule, active = well fitted inhibition curve with a large enough effect; inconclusive = small, poorly fitted or top-dose-only effect; inactive = no such curve, though single readings can be large or run the other way. Where the call is inconclusive, the potency comes from a doubtful curve fit.

Each compound was assayed against Histone-lysine N-methyltransferase EHMT2 (Homo sapiens) (UniProt Q96KQ7) (assay: qHTS Assay for Inhibitors of Histone Lysine Methyltransferase G9a). Settings: G9a H3K9 monomethylation, AlphaScreen, 2 h; activity, negative = inhibition: at 59 µM (top of the series) unless noted.
UniProt Q96KQ7, sequence (Q96KQ7 whole entry, looked up): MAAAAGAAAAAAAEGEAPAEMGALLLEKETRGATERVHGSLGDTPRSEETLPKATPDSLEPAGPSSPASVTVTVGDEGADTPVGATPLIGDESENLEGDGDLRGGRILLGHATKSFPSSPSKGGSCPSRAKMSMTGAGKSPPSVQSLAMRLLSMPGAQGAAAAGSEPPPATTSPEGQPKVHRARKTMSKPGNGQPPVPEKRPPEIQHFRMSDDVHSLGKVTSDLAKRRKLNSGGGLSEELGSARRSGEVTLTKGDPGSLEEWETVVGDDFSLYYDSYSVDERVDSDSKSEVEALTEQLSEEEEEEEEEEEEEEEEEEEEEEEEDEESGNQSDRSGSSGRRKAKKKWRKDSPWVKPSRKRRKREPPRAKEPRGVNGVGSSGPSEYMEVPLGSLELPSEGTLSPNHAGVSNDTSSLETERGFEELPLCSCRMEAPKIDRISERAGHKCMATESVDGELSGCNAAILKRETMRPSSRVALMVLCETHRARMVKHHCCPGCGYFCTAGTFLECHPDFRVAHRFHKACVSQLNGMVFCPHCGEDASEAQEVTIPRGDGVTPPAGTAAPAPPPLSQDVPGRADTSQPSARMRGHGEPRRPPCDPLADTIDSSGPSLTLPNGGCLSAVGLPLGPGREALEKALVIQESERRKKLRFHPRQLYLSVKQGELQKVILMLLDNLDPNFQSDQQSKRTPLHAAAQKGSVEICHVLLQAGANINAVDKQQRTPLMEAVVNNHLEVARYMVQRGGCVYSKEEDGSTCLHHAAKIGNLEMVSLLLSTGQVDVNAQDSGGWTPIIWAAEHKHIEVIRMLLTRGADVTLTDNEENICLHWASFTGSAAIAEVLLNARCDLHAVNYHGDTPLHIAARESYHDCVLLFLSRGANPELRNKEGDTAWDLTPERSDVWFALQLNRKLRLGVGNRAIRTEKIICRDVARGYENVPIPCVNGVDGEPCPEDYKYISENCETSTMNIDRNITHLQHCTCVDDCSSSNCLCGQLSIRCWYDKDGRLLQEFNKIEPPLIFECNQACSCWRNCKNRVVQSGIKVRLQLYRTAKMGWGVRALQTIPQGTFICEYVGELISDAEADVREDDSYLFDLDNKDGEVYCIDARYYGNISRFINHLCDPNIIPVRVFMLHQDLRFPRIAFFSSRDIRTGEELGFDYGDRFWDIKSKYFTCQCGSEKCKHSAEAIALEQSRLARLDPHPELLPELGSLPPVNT
Procedure, shortened: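 G9a (20 nM) preincubated 15 min RT with compounds, then 500 nM biotinylated H3K9 peptide and 20 uM SAM added; 2 h RT reaction. Monomethyl-H3K9 product detected by AlphaScreen with anti-H3K9me1 antibody, streptavidin donor and anti-rabbit IgG acceptor beads.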
% is scaled to controls: 0 for no effect and ±100 for the full control effect; potency is read from the fitted curve at half-maximal effect; tags tell the direction and shape of the fitted curve.
Also: nearly all actives have a fitted effect of over 75% in size.

Row | Structure (SMILES) | activity, negative = inhibition | Potency
1 | CC1CC(C)CN(C(=O)CCNS(=O)(=O)c2ccc3c(c2)CCC(=O)N3)C1 (centres undefined) | inactive: 6.8% [at 102 µM] | 
2 | CCCCN(C(=O)CCCc1nc2ccccc2c(=O)[nH]1)c1c(N)n(CCCC)c(=O)[nH]c1=O |  | inconclusive: 89.1 µM [inhibitor, single point]
3 | Cc1cccc(Cn2c(SCCO)nc3c2c(=O)n(C)c(=O)n3C)c1 | inactive: -2.49% [at 102 µM] | 
4 | CCN(c1ccc(NC(=O)COC(=O)c2ccc(S(=O)(=O)N3CCCC3)cc2)cc1)C(C)C |  | inconclusive: 1.58 µM [inhibitor, full curve, poor fit]
5 | Cc1ccc(Nc2nc(C(=O)NCc3ccco3)cs2)cc1 |  | inconclusive: 31.6 µM [inhibitor, single point]
6 | Cc1[nH]c2ccccc2c1C(=O)COC(=O)C1CC(=O)N(Cc2ccco2)C1 (centres undefined) |  | inconclusive: 50.1 µM [inhibitor, partial curve]
7 | Cc1ccc(S(=O)(=O)Nc2cc3c(cc2N2CCOCC2)n(C)c(=O)n3C)c(C)c1 |  | inconclusive: 10 µM [inhibitor, partial curve]
8 | CCOC(=O)c1c(NC(=O)Cc2cccs2)sc(C)c1C | inactive: -15.2% [at 12.7 µM] | 
9 | CSc1nnc(C(C)(C)C)c(=O)n1/N=C/c1ccccc1 |  | inconclusive: 89.1 µM [inhibitor, single point]
10 | CCN1CCC(N(Cc2cccc(OC)c2)C(=O)Nc2ccc(C)cc2Cl)CC1 | inactive: -29% | 
11 | CCN(CC)CCNC(=O)c1ccc(NC(=O)c2cccc(S(=O)(=O)N3CCc4ccccc43)c2)cc1 |  | active: 31.6 µM
12 | CCOC(=O)/C(=C\c1c[nH]c2ccccc12)NC(C)=O | inactive: 1.63% | 
13 | O=C(NCc1ccccc1Cl)c1cccc(C(F)(F)F)c1 |  | active: 44.7 µM
14 | Cc1ccc(NC(=O)Cn2c(-c3ccc4c(c3)OCO4)cn(-c3ccccc3)c2=O)cc1 |  | inconclusive: 10 µM [inhibitor, partial curve, poor fit]
15 | CCOC(=O)C1=C(C)NC(=S)NC1c1ccc(-c2ccc(Cl)cc2)o1 (centres undefined) |  | inconclusive: 39.8 µM [inhibitor, single point]
16 | O=C(N/C(=C\c1ccc([N+](=O)[O-])cc1)C(=O)N1CCOCC1)c1ccccc1 |  | inconclusive: 79.4 µM [inhibitor, single point]
17 | COc1cnc(-c2ccccn2)nc1Sc1ccc(C)cc1 |  | inconclusive: 89.1 µM [inhibitor, single point]
18 | COc1cccc(C(=O)Nc2nnc(-c3cccs3)o2)c1 | inactive: -4.38% [at 102 µM] | 
19 | COc1ccc(N/C=C2/Sc3ccccc3NC2=O)cc1 |  | inconclusive: 79.4 µM [inhibitor, single point]
